In PubChem BioAssay (NCI):
Where “and” joins values, the source holds several entries; their conditions need not be identical. Equal values may be shown once.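 Each compound was tested at five concentrations against cells in 96-well plates for 48 hours. GI50 is the concentration that inhibits growth by half. TGI: total growth inhibition.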

Each compound was assayed on NCI-H322M lung (assay: inhibition of tumour cell growth, NCI panel, 48 h).

Structure (SMILES)	TGI	GI50
COc1ccc2c(c1)OCCc1cn[nH]c1-2	> 100 µM	
COC(=O)c1c(CC(Cc2ccc3c(c2)CCCC3)C(=O)OC)ccc2c1CCCC2 (stereo not given)	> 100 µM	
CCOC(=O)c1c(C)n(Cc2ccc(Cl)cc2Cl)c2c1cc1oc(=O)c(=O)n3cnc2c13	26.2 µM	12.8 µM
O=S1(=O)N(Cc2ccccc2)[C@@H](Cc2ccccc2)[C@H](O)[C@H](O)[C@H](Cc2ccccc2)N1Cc1ccccc1	11.8 µM	4.48 µM
COC(=O)CC(C(C(=O)OCc1ccccc1)C(C)O)N1C(=O)OC(c2ccccc2)C1c1ccccc1 (stereo not given)	> 100 µM	
CSc1nc(NC2OC(COC(C)=O)C(OC(C)=O)C(OC(C)=O)C2OC(C)=O)c(N=C(C)C(C)=O)c(=O)[nH]1 (stereo not given)	> 100 µM	
COc1ccc(OC(C(=O)O)C(C)C)c2c1CCCC2=O (stereo not given)	> 100 µM	
CNc1ccc2ncccc2c1[N+](=O)[O-]	> 100 µM	
CNNC(=N\S(=O)(=O)c1cc(C)c(Cl)cc1SCc1ccccc1)/N=C/c1ccc([N+](=O)[O-])s1	> 100 µM	> 58.6 µM
COc1cccc(/C(Cl)=C(\C=O)c2cccc(OC)c2)c1	28 µM	
CN1CCN(CCOc2ccc(-c3cnc4c(-c5cccc(F)c5)cnn4c3)cc2)CC1	4.08 µM	1.91 µM
O=C(/C=C/c1ccc(C(F)(F)F)cc1)Nc1ccc(C=C2c3ccccc3C(=O)c3ccccc32)cc1	> 100 µM	> 100 µM
CC1CN(S(=O)(=O)c2oc(-c3ccc(Cl)cc3)nc2C#N)CC(C)O1 (stereo not given)	31.8 µM	17.3 µM
Cc1cc(C)c2c(n1)sc1c(N)ncnc12	> 25 µM	> 25 µM
c1cc(-c2nnc(SSc3ncnc4nc[nH]c34)o2)ccn1	> 100 µM	2.82 µM
COC(=O)c1cc2c(cc1Cl)SC1=NN(C)S(=O)N1S2(=O)=O (stereo not given)	> 100 µM	> 100 µM
COc1ccc(Nc2nc3ccccc3c3occc23)cc1	39.6 µM	5.15 µM
CC1(C)C2CCC3(OCCO3)C1C(O)C2 (stereo not given)	> 100 µM	
Cc1ccc2nc(-c3ccc(OCC(=O)N=Nc4c(O)[nH]c5ccccc45)cc3)[nH]c2c1	21.9 µM	3.67 µM
O=c1nc(-c2ccccc2)cc(CC(O)c2ccc(Cl)c(Cl)c2)[nH]1 (stereo not given)	> 100 µM	
CC1=C2C(=CC(C)(C)[C@@H]2O)C(=O)[C@](C)(O)C12CC2	0.324 µM and 0.527 µM	
CC[C@@]1(OC(=O)CN)C(=O)OCc2c1cc1n(c2=O)Cc2c-1nc1cc3c(cc1c2CCl)OCO3	> 35.1 µM	0.407 µM
C[Si](C)(C)C(CCCCSc1ccccc1)(Sc1ccccc1)Sc1ccccc1	> 100 µM	
COc1cc(C2C(Cl)C(=O)N2NC(=O)c2ccc(NC(C)=O)cc2)ccc1O (stereo not given)	> 100 µM	

Structure (SMILES)	TGI	GI50
CCCc1c(C(=O)OCC)[nH]c(-c2ccc(-c3[nH]c(C(=O)OCC)c(CCC)c3C(=O)OCC)s2)c1C(=O)OCC	> 100 µM	
Cc1cccc2c1c1ccc3c(c1n2C)C(=O)C=CC3=O	30.9 µM	
COc1ccc(/C=C/C(=O)c2ccc(-n3cc(CN4CCN(c5cc6c(cc5F)c(=O)c(C(=O)O)cn6C5CC5)CC4)nn3)cc2)cc1OC	> 100 µM	3.58 µM
C[N+](C)(C)C=Nc1cccc2c1CCCC2	> 100 µM	
Cc1ccc(N(O)C(C)(C)C)cc1	> 100 µM	
O=C(Nc1ccc(F)cc1F)c1cc(Cl)ccc1O	57.5 µM	2.07 µM
O=C(O)/C=C\C(=O)Nc1ccccn1	> 100 µM	
CCCCCCCCCC(=O)N[C@@H](c1ccco1)[C@@H](O)C(=O)O[C@H]1C[C@@]2(O)[C@@H](OC(=O)c3ccccc3)[C@@H]3[C@]4(OC(C)=O)CO[C@@H]4C[C@H](O)[C@@]3(C)C(=O)[C@H](OC(C)=O)C(=C1C)C2(C)C	> 50 µM	
CC(=O)OC1C2CCC3C(C)(O)C4CC(O)C(C)(C)C4(O)C(O)CC13CC2(C)O (stereo not given)	> 100 µM	
CCn1c(-c2cc3c([nH]c4ccccc43)c(-c3cccc(O)c3)n2)n[nH]c1=S	24.3 µM	8.58 µM
CC12CCCCC1=[N+]([O-])C(C)(C)N2O (stereo not given)	> 100 µM	
Oc1c(Cl)cc(Cl)c2ccc(Cn3cc(-c4cc(C(F)(F)F)cc(C(F)(F)F)c4)nn3)nc12	26.8 µM	13.8 µM
CCOC(=O)CN(Cn1cncn1)Cn1cncn1	> 100 µM	
Oc1ccccc1C1C=C(c2ccccc2)NC(N2CCCCC2)=C1c1nc2ccccc2[nH]1 (stereo not given)	37.4 µM	
Cn1cccc1-c1cc(-c2ccccc2)[nH]c(=O)c1C#N	> 100 µM	> 100 µM
COc1ccc2c(c1OC)-c1c(c3ccc([N+](=O)[O-])cc3c(=O)n1CCCBr)C2=O	> 100 µM	> 100 µM
CO[C@H]1O[C@@H]2CO[C@@H](c3ccccc3)O[C@H]2[C@@H]2C/C=C\CCC[C@@]12O	> 100 µM	
O=C1OC(c2ccccc2)=N/C1=C\c1ccc(Oc2ccc(Cl)c(Cl)c2)cc1	> 100 µM	
O=c1c2cc(-c3ccccc3)sc2ncn1Cc1ccc(Cl)c(Cl)c1	31.8 µM	0.0947 µM
Cc1cc(C)nc(/C(=N\NC(N)=O)C(=O)Nc2nc3ccc(C)cc3s2)c1	> 100 µM	
CN(C)c1nc(=NCc2ccco2)ss1	> 92.1 µM	
O=C(/C=C/c1ccc(O)c(O)c1)NCc1c[nH]c2ccccc12	> 100 µM	51.7 µM
COC(=O)C1=C(O)C(C(=O)OC)[C@]2(O)[C@@H](C(=O)OC)[C@H]1C[C@@H](c1ccccc1)[C@@H]2C(=O)OC (stereo not given in full)	32.8 µM	
[O-]c1ccccc1C=Nc1ccc2c(c1)CCC2.[O-]c1ccccc1C=Nc1ccc2c(c1)CCC2.[O]=[U+2]=[O]	> 100 µM	> 100 µM

Structure (SMILES)	TGI	GI50
COC(=O)c1c(C)cccc1C1CN=NC12Cc1ccc(C)c(C)c1C2=O (stereo not given)	> 100 µM	
CC(C)(C)C(=O)OCC1OC(N=[N+]=[N-])C(OC(=O)C(C)(C)C)C(OC(=O)C(C)(C)C)C1OC(=O)C(C)(C)C (stereo not given)	> 100 µM	
COC(=O)C12CC(NC(=O)c3csc([C@@H](C[C@H](C(C)C)N(C)C(=O)[C@@H](NC(=O)[C@H]4CCCCN4C)C4CC4)OC(C)=O)n3)(C1)C2	> 16.7 µM	0.0747 µM
O=C(Nc1ccc(-n2ccc3c(NC(=O)c4ccccc4)ncnc32)cc1)c1cccc(C(F)(F)F)c1	36.2 µM	10.6 µM
CC1(C)C(CCO)CC1n1ccc(=O)[nH]c1=O (stereo not given)	> 100 µM	
CS(=O)(=O)c1nc(-c2cc3c(c(S(C)(=O)=O)n2)CCC3)cc2c1CCCC2	> 100 µM	
O=C1C2=C(C(=O)c3cnccc31)C1C=CC2CC1 (stereo not given)	36 µM	21.1 µM
O=C(O)CC[P+](c1ccccc1)(c1ccccc1)c1ccccc1	> 100 µM	
CS[C@]12[C@@H]3C(=O)N(C)C(=O)[C@@H]3[C@](C)(C(=O)N1C)C(=O)N2c1ccccc1	> 100 µM	
CC(C)(O)C1CC[C@]2(C)[C@H]3CC[C@@H]4[C@@]5(C)CCCC(C)(C)[C@@H]5CC[C@@]4(C)[C@]3(C)CC[C@@H]12 (stereo not given in full)	> 100 µM	
CN(C)CCNC(=O)c1ccc(-c2nc3ccc4[nH]ncc4c3c3c2C2CCC3C2)cc1 (stereo not given)	7.92 µM	1.76 µM
C=C[C@@]1(O)CCCC[C@@H]1CC(Sc1ccccc1)Sc1ccccc1	32 µM	
Cc1ccc(-c2cc(O)c3nc4ccccc4n3c2)cc1	> 100 µM	
COc1ccc(-c2cc(C(=O)Nc3cc(C(F)(F)F)cc(C(F)(F)F)c3)c3ccccc3n2)cc1	20.2 µM	
C1=C/COCc2cc(ccc2OCCN2CCCC2)Nc2nccc(n2)-c2ccc(o2)COC/1	7.93 µM	1.82 µM
CCOC(=O)C(NC(=O)CC)(Nc1ccc(S(=O)(=O)Nc2onc(C)c2C)cc1)C(F)(F)F (stereo not given)	> 100 µM	
CCc1cccc(C)c1NC(=O)CCc1nnc2s/c(=C\c3cccc4ccccc34)c(=O)n12	> 100 µM	
CCC(C)Oc1nc2c(c(=O)n(C)c(=O)n2C)n1C (stereo not given)	> 100 µM	> 100 µM
COc1ccc(C(=O)c2cc3c(N)c(C(=O)Nc4ccccc4)sc3nc2C)cc1	> 100 µM	2.85 µM
O=C(O)c1cc(=O)c2c([nH]c3ccccc32)s1	> 100 µM	
O=c1[nH]c(=O)n(COCCO)c2ccsc12	> 100 µM	
COc1cc2ncnc(-n3ncc4cc(NC(=O)Nc5ccc(Cl)c(Cl)c5)ccc43)c2cc1OC	5.47 µM	2.23 µM
O=NN(CCF)C(=O)NC1CC2CCC1C2 (stereo not given)	> 100 µM	
CCCCCN(CCCCC)CC(O)c1cc(Cl)ccc1OC (stereo not given)	39.3 µM	9.1 µM

Structure (SMILES)	TGI	GI50
O=Nn1c2ccccc2c2cc([N+](=O)[O-])ccc21	41.6 µM	
CC(C)c1nc(N(C)S(C)(=O)=O)nc(-c2ccc(F)cc2)c1/C=C/[C@@H](O)C[C@@H](O)CC(=O)O	> 100 µM	> 86.3 µM
COC(=O)C1=C(CS(=O)c2ccc([N+](=O)[O-])cc2[N+](=O)[O-])C2C=CC1C2 (stereo not given)	> 100 µM	
COc1ccc(C2OCCN2C)cc1 (stereo not given)	> 100 µM	
CC1(c2cc3c(cc2Br)OCO3)SCCCS1	> 100 µM	
CC(C)(C)CC(C)(C)NC(=S)NO	> 100 µM	
CCCn1cnc2c(SCC(=O)O)nc(N)nc21	> 100 µM	
Cc1cc(Nc2nc(C(=O)Nc3ccccc3)nc3ccccc23)n[nH]1	> 25 µM	11.2 µM
CSc1ncc(Br)c(Sc2nc(N)nc3nc[nH]c23)n1	66.6 µM	10.4 µM
O=C1C(=O)N(c2ccc(Cl)cc2)C(=O)C(=O)C1c1nc2ccccc2s1	> 100 µM	
O=S(=O)(c1ccc(-c2nnc(-c3ccc(F)cc3)o2)cc1)c1ccc(-c2nnc(-c3ccc(F)cc3)o2)cc1	> 100 µM	
CN(Cc1ccc(C(F)(F)F)cc1)CC(O)C(=O)Nc1ccc(Cl)cc1 (stereo not given)	2.98 µM	1.59 µM
Cl/C(N=Nc1ccccc1)=N/Nc1ccccc1	> 100 µM	
O=[N+]([O-])c1nccn1CC(O)CN1CCCCC1 (stereo not given)	> 100 µM	
COc1ccc2c(c1)CC[C@@H]1C2CC[C@](C)(C#N)C1CC#N (stereo not given in full)	> 100 µM	
COc1ccc(C(Cc2ccccc2)C2NC(=S)NC2=O)cc1 (stereo not given)	> 25 µM	
CCOC(=O)CCC1(C(=O)OCC)CCCC1=O (stereo not given)	> 100 µM	
CCc1ccccc1NC(=O)/C=C/c1ccccc1	> 100 µM	
NS(=O)(=O)c1ccc(N2N=C3c4ccccc4CC3C2c2cccs2)cc1 (stereo not given)	47.9 µM	5.79 µM
C#CCNC(=O)NCCCCC(NC(=O)OCc1ccccc1)C(=O)OCc1ccccc1 (stereo not given)	> 100 µM	
C=C1[C@@](C)([C@@H]2CCCS2)[C@H]2C(C)=C[C@]1(C)n1c(=O)n(-c3ccccc3)c(=O)n12	> 100 µM	
O=C(N/C(=C\c1ccc(Br)cc1)c1nc2ccccc2[nH]1)c1ccccc1	49.2 µM	
CC1(C)CC2(C)CC1CC2(O)c1ccccc1 (stereo not given)	> 100 µM	
